Results as given in the supplement of paper PMC10126150.
Sequences with one replicate were seen in a single cluster, so their values are uncertain.

test system: ATP; assay: switch fluorescence ratio, 500 uM ATP over buffer (Cy3 cluster intensity, sum of 5 cycles each) (fold (ratio)); higher = stronger signal-on switching upon ATP binding; sequences stand for … in TCGTCGGCAGCGTCAGATGTGTATAAGAGACAGTTTTTTTTTTTTTTTTTTTTTTTTT…TC; settings: aptamer strand: ATP DNA aptamer (quencher-CACCTGGGGGAGTATTGCGGAGGAAGG + anchor), 100 nM annealed; ATP concentration: 500 uM; one replicate
Outline: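 Between each of five buffer/ATP cycles, the flow-cell was stripped with NaOH and re-annealed. Each cycle imaged Cy3-labelled switching-strand clusters, annealed to 100 nM quencher-labelled ATP aptamer on a modified Illumina MiSeq flow-cell, first in selection buffer and then after 15 min with 500 uM ATP at 22 °C. The fluorescence ratio is summed target-cycle over summed buffer-cycle Cy3 intensity per cluster, averaged per switch-domain sequence, with clusters outside 100-1000 RFU excluded.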
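Note: ATP exposure 15 min at 22 °C before imaging.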

Row | Sequence | switch fluorescence ratio
1 | AGGTTACAAA | 1.03
2 | AGGTTAGTAT | 0.991
3 | AGGTTATAAC | 0.948
4 | AGGTTATCAA | 1.02
5 | AGGTTCGTCG | 0.988
6 | AGGTTGAATG | 0.983
7 | AGGTTGCAC | 1.04
8 | AGGTTGCCCT | 0.951
9 | AGGTTGCGGA | 0.916
10 | AGGTTGCTGT | 0.986
11 | AGGTTGGT | 0.977
12 | AGGTTGTCTT | 0.979
13 | AGGTTTAAGC | 1.03
14 | AGGTTTCTTG | 1.03
15 | AGGTTTGGCG | 1.03
16 | AGGTTTTAG | 1.03
17 | AGGTTTTCAC | 0.999
18 | AGTAAATCAC | 1.04
19 | AGTAACAACC | 1.03
20 | AGTAAGCAAG | 1
21 | AGTAAGCTGT | 1
22 | AGTAAGGACA | 1.04
23 | AGTAATACAC | 1.26
24 | AGTAATTAC | 1.01
25 | AGTACCTGCA | 1.12
26 | AGTACGCTC | 1.08

Row | Sequence | switch fluorescence ratio
27 | AGTACGCTCT | 0.971
28 | AGTACGCTTA | 1.03
29 | AGTACTACCT | 1.25
30 | AGTACTATGA | 1.01
31 | AGTACTGAGA | 1.04
32 | AGTACTGGGT | 0.984
33 | AGTACTGTAG | 1.02
34 | AGTAGAACCA | 1.04
35 | AGTAGGAGCG | 0.957
36 | AGTAGGGAAT | 1.02
37 | AGTAGGGTA | 0.973
38 | AGTAGGTACA | 1.03
39 | AGTAGGTCCA | 1.02
40 | AGTAGTCATT | 0.95
41 | AGTAGTTAGT | 0.999
42 | AGTATAGCAT | 0.988
43 | AGTATAGCGG | 0.995
44 | AGTATCACAT | 0.995
45 | AGTATCCAGT | 0.922
46 | AGTATCTAAT | 0.994
47 | AGTATGAT | 1.01
48 | AGTATGTAGG | 1
49 | AGTATTAAGC | 1.02
50 | AGTCAAGATA | 0.981
51 | AGTCACAGGT | 1.14
52 | AGTCACTGTT | 0.997

Row | Sequence | switch fluorescence ratio
53 | AGTCAGGGTG | 1.1
54 | AGTCATGGGA | 0.943
55 | AGTCATGGTA | 1.02
56 | AGTCCACCTT | 1.07
57 | AGTCCACTTT | 0.989
58 | AGTCCATTTT | 0.981
59 | AGTCCCGAGA | 1.02
60 | AGTCCGATTG | 1
61 | AGTCCTGTTG | 0.997
62 | AGTCGACAGT | 0.999
63 | AGTCGAGCT | 1.01
64 | AGTCGAGTTT | 0.977
65 | AGTCGATCCC | 0.994
66 | AGTCGCGTGT | 0.978
67 | AGTCGCTACA | 1.01
68 | AGTCGGGGTG | 2.75
69 | AGTCGGTCGA | 0.978
70 | AGTCGTCA | 1
71 | AGTCTACCAC | 1
72 | AGTCTATAAC | 1
73 | AGTCTGTCCA | 1.01
74 | AGTCTTATTA | 0.99
75 | AGTGAAATTA | 1.01
76 | AGTGAAGTCT | 1
77 | AGTGAATATT | 0.97
78 | AGTGAATGGT | 1.02

Row | Sequence | switch fluorescence ratio
79 | AGTGAATGTG | 0.991
80 | AGTGACATGT | 1.02
81 | AGTGACCCAA | 1.01
82 | AGTGACTGCC | 1.14
83 | AGTGACTGCT | 0.967
84 | AGTGAGGGGC | 0.966
85 | AGTGAGTTTG | 0.981
86 | AGTGATAAAT | 0.994
87 | AGTGATACTA | 1.03
88 | AGTGATCACT | 1.03
89 | AGTGATCCTG | 0.987
90 | AGTGCAAGGA | 0.98
91 | AGTGCATCGG | 1.03
92 | AGTGCCACTA | 1.05
93 | AGTGCCGCAT | 1.07
94 | AGTGCGTGTT | 0.973
95 | AGTGCGTTAG | 0.979
96 | AGTGCTTGCA | 0.937
97 | AGTGGACCAC | 1.02
98 | AGTGGACCGT | 1.04
99 | AGTGGAGGCG | 1.09
100 | AGTGGAGGGT | 0.999
101 | AGTGGATGG | 0.941
102 | AGTGGCGCGG | 1.02
103 | AGTGGCGGGT | 0.983
104 | AGTGGCTAAA | 0.978

Row | Sequence | switch fluorescence ratio
105 | AGTGGCTTAA | 0.96
106 | AGTGGGCGAG | 0.976
107 | AGTGGGGGCG | 1.02
108 | AGTGGGGTGT | 0.968
109 | AGTGGGTCCC | 1.02
110 | AGTGTAAA | 0.967
111 | AGTGTACCGC | 1.06
112 | AGTGTACCGT | 0.99
113 | AGTGTATATT | 1.04
114 | AGTGTCTAAA | 0.958
115 | AGTGTGATTT | 0.95
116 | AGTGTGCTAT | 0.944
117 | AGTGTGGTCC | 0.978
118 | AGTGTTATCT | 0.998
119 | AGTGTTATGT | 0.988
120 | AGTGTTGCGC | 0.946
121 | AGTGTTTGAC | 1
122 | AGTTAAAAGA | 1.01
123 | AGTTAAGGCT | 1
124 | AGTTAAGTGG | 0.959
125 | AGTTAATCAT | 1.05
126 | AGTTAATGCG | 0.994
127 | AGTTAATGGT | 0.975
128 | AGTTACATGC | 1.01
129 | AGTTACCGTA | 1.06
130 | AGTTACGAAT | 0.977

Row | Sequence | switch fluorescence ratio
131 | AGTTAGGCAC | 1.01
132 | AGTTAGGGAA | 1
133 | AGTTAGTTAC | 1.02
134 | AGTTATATTT | 0.983
135 | AGTTATGCA | 0.983
136 | AGTTATGGAA | 0.963
137 | AGTTATTACG | 1.01
138 | AGTTATTT | 0.997
139 | AGTTCAAGTA | 0.993
140 | AGTTCAATCG | 1
141 | AGTTCCAACT | 1.01
142 | AGTTCCAGGT | 1.2
143 | AGTTCCATTA | 0.988
144 | AGTTCGAGCC | 1.01
145 | AGTTCTAG | 0.99
146 | AGTTGAATCG | 1.01
147 | AGTTGACACT | 0.993
148 | AGTTGACGTG | 0.951
149 | AGTTGACTCT | 1.01
150 | AGTTGAGGTC | 0.965
151 | AGTTGCGGGG | 1.04
152 | AGTTGCGGTA | 0.96
153 | AGTTGCGTGA | 1.02
154 | AGTTGCTAA | 0.982
155 | AGTTGGAGAC | 0.971
156 | AGTTGGGCCT | 1.05

Row | Sequence | switch fluorescence ratio
157 | AGTTGGTAGA | 1.03
158 | AGTTTAAAAA | 0.942
159 | AGTTTAGGG | 1.08
160 | AGTTTAGTGG | 0.996
161 | AGTTTAGTTT | 0.992
162 | AGTTTCGTTT | 0.989
163 | AGTTTGAACC | 0.994
164 | AGTTTGACCC | 1.02
165 | AGTTTGGAAT | 0.99
166 | AGTTTGTCGC | 0.945
167 | AGTTTTACGA | 1.04
168 | AGTTTTCGAC | 1.01
169 | AGTTTTTG | 0.99
170 | ATAAAAATAG | 1.01
171 | ATAAAATATA | 0.999
172 | ATAAACATGG | 1.02
173 | ATAAACATGT | 0.973
174 | ATAAACCCAC | 1.33
175 | ATAAACTGTG | 1.06
176 | ATAAAGACCC | 1.01
177 | ATAAAGGCCA | 0.994
178 | ATAAAGGGT | 0.974
179 | ATAAATAATG | 0.982
180 | ATAAATATGC | 1.08
181 | ATAAATCAAA | 1.02
182 | ATAAATGCTT | 0.99

Row | Sequence | switch fluorescence ratio
183 | ATAAATTACC | 1.02
184 | ATAACATCAG | 0.989
185 | ATAACATTCA | 1.15
186 | ATAACGGCTG | 1.06
187 | ATAACTTTT | 0.96
188 | ATAAGATC | 0.955
189 | ATAAGATTGG | 1.02
190 | ATAAGCACAG | 1.12
191 | ATAAGCACCC | 1.5
192 | ATAAGGACTA | 1.04
193 | ATAAGTGAGA | 1.02
194 | ATAATACACT | 1.06
195 | ATAATACCAA | 1.01
196 | ATAATATTAT | 0.993
197 | ATAATCCCC | 1.17
198 | ATAATCTAAA | 0.969
199 | ATAATCTACT | 1.07
200 | ATAATCTGAT | 0.957
201 | ATAATGAC | 1.04
